± gives the standard deviation of the averaged measurements. This is one part of the list.
Tested on: PfAP2-LT AP2 domain (GST-tagged)
Assay: gcPBM binding intensity (ln(normalized median fluorescence intensity)); higher = stronger DNA binding
Method in brief: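 Alexa488 anti-GST antibody, scanned at 488 nm, detected GST-tagged P. falciparum DNA-binding domains that had been expressed in E. coli and incubated for 1 h on an Agilent 4 × 180k array. The array carried primer-extended double-stranded 36-bp intergenic genomic probes and negative controls. Binding intensity is the highest Masliner-normalised natural-log median intensity across replicate spots of either orientation of each probe.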

| Sequence | gcPBM binding intensity (ln) |
| --- | --- |
| ATAGAAGCATCACACTGTACATGGATGAACAGAAAA [XGTACX_site7311] | 9.1 ± 0.48 |
| ATATATATAATGTGAAGTACATTTTGTTTACATATT [XGTACX_site8405] | 8.79 ± 0.44 |
| TATATATATACATACATACACACATATATATATATA [CACACA_site4109] | 9.535 ± 0.064 |
| ATAATTTCTTTTACATGTACAAAATTTGCTTATATG [XGTACX_site5388] | 8.93 ± 0.46 |
| GGATTATTTATAGGAGTGCATACATATATATATATA [GTGCAC_site9454] | 9.61 ± 0.45 |
| TTTATTAAATAATCTCTTTTTATTACATAATAATAA [XGTACX_negctrl_site382] | 8.1 ± 0.45 |
| TTTACACTTTCCAATAGTACATATTAGAATAATTCT [XGTACX_site7734] | 8.47 ± 0.34 |
| TAATTTATGGAATATGTGCACTTGCTGATCACTTTT [GTGCAC_site9843] | 8.93 ± 0.45 |
| AATTTAATCCGTAATAAGAAAAGAAAAAAAAAAAGA [GTGCAC_negctrl_site129] | 8.49 ± 0.49 |
| ATTAGCTACAAACAAAGGCTACCTATAGCAAGAGGG [GTGCAC_negctrl_site33] | 9.12 ± 0.42 |
| CCAATACATAGAAACTGTACATTATGCATTATACAC [XGTACX_site3531] | 8.92 ± 0.37 |
| AATATCTAAATAAAGTGTACTTACCTTATTAATTAT [XGTACX_site2276] | 8.6 ± 0.49 |
| ATTTTCCTATTTAGTAGTACTTTTTTCTTTTTTTAA [XGTACX_site5260] | 8.72 ± 0.55 |
| TTATATTTCACAAATGTGCACAGATACATATATATA | 8.86 ± 0.46 |
| TTATATGTATATATAGTGCAGAACAAAAGATTATAT [GTGCAC_site9599] | 8.82 ± 0.39 |
| TTTTTGTTTCATAAATGTACAAAAACAAACATATTT [XGTACX_site5281] | 8.34 ± 0.35 |
| TTGAAGAAAAAAAAATGTACATAAAAAATATATATG [XGTACX_site428] | 8.72 ± 0.48 |
| CTTATAAATAAAAGAAGTACATGTTAGTTCAAGTTA [XGTACX_site4183] | 8.58 ± 0.41 |
| TATATATATATATGTAGTACCTATAATATTAAATAC [XGTACX_site6118] | 9.255 ± 0.021 |

| Sequence | gcPBM binding intensity (ln) |
| --- | --- |
| TTATTATCATCAAATCAAAAAATTCTTTTACCTGTT [CACACA_negctrl_site1348] | 8.4 ± 0.62 |
| AAGAAAAGAAACAAAAAAAAAAAGAAATAAAAGGAA [TGCATGCA_negctrl_site171] | 8.61 ± 0.62 |
| AATTTTTTTTTTTTTTTTTTTTATATATGTGTGTGT [XGTACX_negctrl_site129] | 9.32 ± 0.42 |
| ATCAATAAATAAAATGTGCACATAATATATTAATAC | 9.03 ± 0.43 |
| TATGAATGGTTAAGTACACACATATTAATATAGGTA [CACACA_site7606] | 9.02 ± 0.43 |
| TATAAAAAATATATATATAATATTATATATATATAT [TGCATGCA_negctrl_site260] | 8.79 ± 0.4 |
| ATTTTTTTTTTTTTTTGTACGAATAATATGTATGAA [XGTACX_site5318] | 8.55 ± 0.45 |
| AAAGGAGGGAATTTTTCTAGGTGTGGAGTGCTACTC [XGTACX_negctrl_site63] | 8.9 ± 0.26 |
| ATTATTGTTTATTGATTTTTGTTAAAATAGGAAATT [GTGCAC_negctrl_site181] | 8.38 ± 0.39 |
| TTTCATCTCGTCATTTCTTATATAACTATTTTATAC [CACACA_negctrl_site813] | 8.86 ± 0.5 |
| ATTATATTTATTAATATGTATATTTAATTATATTTA [XGTACX_negctrl_site376] | 8.47 ± 0.42 |
| AAGTGTAAAAGTTACACACACAAACTTGTCATTTTT [CACACA_site4614] | 9.28 ± 0.33 |
| CAAATTTTTTATTAAACACACAAACATATATATATA [CACACA_site5122] | 8.9 ± 0.36 |
| TTCTTTATTATATGCACACGTACATAAAATATATAT [CACACA_site5157] | 8.94 ± 0.34 |
| TTTATTTTTCCATATGCACACACACCGTATATATAA [CACACA_site8293] | 9.54 ± 0.31 |
| AAAATATAAATATATTTGAACATGGATCAAATGTAA [GTGCAC_negctrl_site626] | 8.64 ± 0.42 |
| TATTCATTCTATAAAACACACAAATATTTTTGTATC [CACACA_site666] | 8.7 ± 0.45 |
| ATACATACATACATACGTACATATGTATATATATAT [XGTACX_site8498] | 9.23 ± 0.14 |
| ATGTTCTATAAATATGAACACACGACATATTATTTA [CACACA_site1799] | 8.73 ± 0.35 |

| Sequence | gcPBM binding intensity (ln) |
| --- | --- |
| TATATTTAATTACATGAACACACATTATATATTTTT [CACACA_site8969] | 8.71 ± 0.47 |
| TGTAGTATCAATTTTTGTACATAACACATATGTATA [XGTACX_site613] | 8.77 ± 0.43 |
| ATATATATATATATATGTACATATTATTCTCATTGT [XGTACX_site6259] | 9.74 ± 0.014 |
| ATATATATATATAAAGTGCAAAAATGAAAGTAAGAC [GTGCAC_site9850] | 9.44 ± 0.38 |
| ATAAAATATAAAAACGCACACAATTATAAGGGTGTA [CACACA_site177] | 9.26 ± 0.38 |
| AAATTAAAATATAATACACACATAAAAAAAAAATCA [CACACA_site5918] | 8.96 ± 0.41 |
| GTATATGAATGTTCATGTACATAATAAAATATATAA [XGTACX_site250] | 8.8 ± 0.4 |
| CAATTAAACAATTAAACATGCAAAATGATATAATAA [TGCATGCA_site240] | 8.87 ± 0.49 |
| AAACAATTTAGACATACACACAAAAATAATATTATA [CACACA_site384] | 9.12 ± 0.46 |
| CACGAAAATTTGTAGAGTACATATATAATTAATATA [XGTACX_site3808] | 8.65 ± 0.54 |
| ATTAAAAAAAAGCTCATCGAAATGTCTTATATAAAT [CACACA_negctrl_site912] | 8.69 ± 0.47 |
| ATATATATATATATATGTACATATTGTATTATTCAC [XGTACX_site6511] | 9.705 ± 0.021 |
| GAGCATTACACATATACACACATATATATAAACATA [CACACA_site5515] | 9.26 ± 0.47 |
| TATAATAATATTTATTGTACGATTAGATTAATTCAT [XGTACX_site612] | 8.53 ± 0.36 |
| CATATGATATTATTTTGTACTTATTACAAATATGAA [XGTACX_site7929] | 8.46 ± 0.4 |
| ATATATATATATATTTGTACATAATATATATATGCA [XGTACX_site1795] | 9.08 ± 0.2 |
| AAAAAAAAATAGAAATGTACAAATTGTAATAATTCC [XGTACX_site6182] | 8.86 ± 0.54 |
| AAAGAAAATTAAAAAGAACACACAAATATATATATA [CACACA_site9196] | 9.15 ± 0.44 |

From the supplement of paper PMC11417369
